From the RNAGym collection of RNA variant scans (doi:10.1073/pnas.2313332121)
Variants at the floor of the assay are shown more often than the library holds them.

B1: TPR 5TU (parent)
chain: GGAUCUUCUCGAUCUAACAAAAAAGACAAAUCUGCCACAAAGCUUGAGAGCAUCUUCGGAUGCAGAGGCGGCAGCCUUCGGUGGCGCGAUAGCGCCAACGUUCUCAACUAUGACACGCAAAACGCGUGCUCCGUUGAAUGGAGUUUAUCAUG

Variants of: B1
Assay: polymerase ribozyme fitness, log enrichment relative to wild type (log ratio); higher = more active; in vitro selection for triplet polymerase activity
Outline: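 Each subunit of a heterodimeric triplet polymerase ribozyme was represented by a PCR-built, transcribed mutant library that underwent triplicate single-round in vitro selection with frozen incubation at −7 °C. Extended constructs were recovered by gel excision, streptavidin-bead capture and RT-PCR, and Illumina sequencing of input and output libraries kept genotypes with ≥10 input reads and ≥1 read per output. Fitness is the logarithm of genotype enrichment relative to wild-type enrichment, from inverse-variance-weighted replicate averages, with a logarithm base of 2.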

Variant | polymerase ribozyme fitness (log ratio)
U55G C114U | -2.17
C54G U55A G94U A98C U146G | -3.37
C54A U56A C93U A120G G126U | -2.38
U53C C132G | ≤ -4.2
C54A G86A C99A C103A A142G | ≤ -4.2
C54G G59U U135C A138U | ≤ -4.2
U55A G128A | -4.18
C54G C57U G74A C87U A98G | ≤ -4.2
C54U C87U G92C | -0.365
U53G U77C U102G A107U C118G | ≤ -4.2
U55A C108G | ≤ -4.2
U53A U56G C57U A73G C87A G143A | ≤ -4.2
U55A A106U A107U | -4.11
U55G G81A U139C | ≤ -4.2
U53G U55A U148C | ≤ -4.2
C54G A60U U77A G141U | ≤ -4.2
U55G C87U | -1.42
C54A A66C G92U U104G C108G G124A C131A | ≤ -4.2
C54A G62A G80U A142U | ≤ -4.2
C54A A64U C76G A91C | ≤ -4.2
C54U A110C C114U A121U | -4.15

Variant | polymerase ribozyme fitness (log ratio)
C54A C72U C93A | ≤ -4.2
U53A C85U C87A C95U G143A | ≤ -4.2
C54G G86A A120U | -2.8
C54U C75G G80C U82A C87U C99G | ≤ -4.2
C54U G58C C85A | -2.42
U55A A66C U77A C87A | ≤ -4.2
U55A A115U G133U | ≤ -4.2
C54U C57A C75U A91G | -3.62
C54A | -1.06
C54U | -0.314
C54G | -1.45
U55G A110G | -2.87
U55A C87U U146A | -1.36
C54A A91G | -3.97
C54A U55A C103G | ≤ -4.2
C54U U77A G84U G88U | ≤ -4.2
C54G U56A G71A G94A U101A U102A C108U C116G C125U A138C | ≤ -4.2
U55A G81U G88C A120G G143A | ≤ -4.2
U53A G58U C95A U144A C149A | ≤ -4.2
U55A U61G C125G | ≤ -4.2
U53A U55A C103G | ≤ -4.2

Variant | polymerase ribozyme fitness (log ratio)
U53C G86A C95U | -1.78
U55A A60U C85G A106U C116U A138U U146G | ≤ -4.2
C54U C85A G128A U144G | ≤ -4.2
C54G C103G | ≤ -4.2
U53A G94A C125A U139C A142C | ≤ -4.2
U53A C87A G94A | ≤ -4.2
U53C G94C A98C U148G | ≤ -4.2
U53A U102G | ≤ -4.2
U53G C87G A91G A113C U127C | ≤ -4.2
C54U C69U A73U G92U C114G C125U | ≤ -4.2
U53A U55C U77A U90A C93U G141C | ≤ -4.2
C54U U82A C105U A119G | 0.194
U55A C72U G80C C105U C125G G128A G141U | ≤ -4.2
C54U G68U G71A C103A C105G G140C | ≤ -4.2
C54U U82A G83A A98G | -1.89
U53A U55A G84C C93A C95U | ≤ -4.2
U55G G70A C129G | ≤ -4.2
C54A A91U C95A C105G U127A U148C | ≤ -4.2
C54U C85G C87G | ≤ -4.2
C54U G83A C103G A138U | ≤ -4.2
C54A C85A C105A | ≤ -4.2

Variant | polymerase ribozyme fitness (log ratio)
C54G A64G A106U A107C U148A | ≤ -4.2
U53A U55A G74A G84A C95U G141U | ≤ -4.2
U53G G59A C75A C85A U148A | ≤ -4.2
C54U U55A C76A A91U C95A C103A C131G A138U | ≤ -4.2
C54A A66G C87G C108A | ≤ -4.2
C54G G83U C108U A115G G143A | ≤ -4.2
C54U U55G G58A A64U G88A C95G U127A | ≤ -4.2
U55A C87G G143U | ≤ -4.2
U55A G88C C96U U101G | ≤ -4.2
U55A G62A C87U C103U | -1.44
U55A A138G | -2.51
U55A A91C | ≤ -4.2
U55A A91U | ≤ -4.2
U55A G70A C76A | ≤ -4.2
U53C G58C C79U C99U C129U | ≤ -4.2
C54U G74C | -3.95
C54U G86A | -1.18
C54U C85G A89U C116A G141C | ≤ -4.2
C54G C96G G126A | -2.33
U55A C69U C93U | -3.95
U55A C87G C105A G136C | ≤ -4.2
